Consider 31 molecules from paper PMC9911399, “Two distinct binding modes provide the RNA-binding protein RbFox with extraordinary sequence specificity”.

Where a chain is given by its changes, count along the chain named. The list shows a part of the results.

To fix the notation:
B1: ACGAUAG (DNA:RNA)
RNA: GGGAGACCGGAAUUCAGAUUGUCCACGAUAGUUAAAUCCCGUCGUAGCCACCA
DNA 1: CAATCTGAATTCCGGTCTCCC
DNA 2: TGGTGGCTACGACGGGATT
B2: GGGCCAG (DNA:RNA)
RNA: B1 RNA with A25G, C26G, A28C, U29C
DNA 1: CAATCTGAATTCCGGTCTCCC
DNA 2: TGGTGGCTACGACGGGATT
B3: AAAUCGA (DNA:RNA)
RNA: B1 RNA with C26A, G27A, A28U, U29C, A30G, G31A
DNA 1: CAATCTGAATTCCGGTCTCCC
DNA 2: TGGTGGCTACGACGGGATT
B4: AAAGGCA (DNA:RNA)
RNA: B1 RNA with C26A, G27A, A28G, U29G, A30C, G31A
DNA 1: CAATCTGAATTCCGGTCTCCC
DNA 2: TGGTGGCTACGACGGGATT
B5: GUACAGC (DNA:RNA)
RNA: GGGAGACCGGAAUUCAGAUUGUCCGUACAGCUUAAAUCCCGUCGUAGCCACCA
DNA 1: CAATCTGAATTCCGGTCTCCC
DNA 2: TGGTGGCTACGACGGGATT
B6: AGAGGUA (DNA:RNA)
RNA: B1 RNA with C26G, G27A, A28G, U29G, A30U, G31A
DNA 1: CAATCTGAATTCCGGTCTCCC
DNA 2: TGGTGGCTACGACGGGATT
B7: GUGUGGC (DNA:RNA)
RNA: B5 RNA with A27G, C28U, A29G
DNA 1: CAATCTGAATTCCGGTCTCCC
DNA 2: TGGTGGCTACGACGGGATT
B8: GGGAUUC (DNA:RNA)
RNA: B1 RNA with A25G, C26G, A30U, G31C
DNA 1: CAATCTGAATTCCGGTCTCCC
DNA 2: TGGTGGCTACGACGGGATT
B9: CACCUUC (DNA:RNA)
RNA: B5 RNA with G25C, U26A, A27C, A29U, G30U
DNA 1: CAATCTGAATTCCGGTCTCCC
DNA 2: TGGTGGCTACGACGGGATT
B10: GCGCGUG (DNA:RNA)
RNA: B1 RNA with A25G, A28C, U29G, A30U
DNA 1: CAATCTGAATTCCGGTCTCCC
DNA 2: TGGTGGCTACGACGGGATT
B11: ACAAGUG (DNA:RNA)
RNA: B1 RNA with G27A, U29G, A30U
DNA 1: CAATCTGAATTCCGGTCTCCC
DNA 2: TGGTGGCTACGACGGGATT
B12: UAGAAUC (DNA:RNA)
RNA: B1 RNA with A25U, C26A, U29A, A30U, G31C
DNA 1: CAATCTGAATTCCGGTCTCCC
DNA 2: TGGTGGCTACGACGGGATT
B13: GUACUAU (DNA:RNA)
RNA: B5 RNA with A29U, G30A, C31U
DNA 1: CAATCTGAATTCCGGTCTCCC
DNA 2: TGGTGGCTACGACGGGATT
B14: AAAGCAC (DNA:RNA)
RNA: B1 RNA with C26A, G27A, A28G, U29C, G31C
DNA 1: CAATCTGAATTCCGGTCTCCC
DNA 2: TGGTGGCTACGACGGGATT
B15: GGCGAAG (DNA:RNA)
RNA: B1 RNA with A25G, C26G, G27C, A28G, U29A
DNA 1: CAATCTGAATTCCGGTCTCCC
DNA 2: TGGTGGCTACGACGGGATT
B16: UACGUCU (DNA:RNA)
RNA: B1 RNA with A25U, C26A, G27C, A28G, A30C, G31U
DNA 1: CAATCTGAATTCCGGTCTCCC
DNA 2: TGGTGGCTACGACGGGATT
B17: CGGUCCA (DNA:RNA)
RNA: B1 RNA with A25C, C26G, A28U, U29C, A30C, G31A
DNA 1: CAATCTGAATTCCGGTCTCCC
DNA 2: TGGTGGCTACGACGGGATT
B18: ACUACGG (DNA:RNA)
RNA: B1 RNA with G27U, U29C, A30G
DNA 1: CAATCTGAATTCCGGTCTCCC
DNA 2: TGGTGGCTACGACGGGATT
B19: CCUGUAA (DNA:RNA)
RNA: B1 RNA with A25C, G27U, A28G, G31A
DNA 1: CAATCTGAATTCCGGTCTCCC
DNA 2: TGGTGGCTACGACGGGATT
B20: UCCUCCG (DNA:RNA)
RNA: B1 RNA with A25U, G27C, A28U, U29C, A30C
DNA 1: CAATCTGAATTCCGGTCTCCC
DNA 2: TGGTGGCTACGACGGGATT
B21: GGUACUG (DNA:RNA)
RNA: B1 RNA with A25G, C26G, G27U, U29C, A30U
DNA 1: CAATCTGAATTCCGGTCTCCC
DNA 2: TGGTGGCTACGACGGGATT
B22: GUUCAGU (DNA:RNA)
RNA: B5 RNA with A27U, C31U
DNA 1: CAATCTGAATTCCGGTCTCCC
DNA 2: TGGTGGCTACGACGGGATT
B23: UGCUAAC (DNA:RNA)
RNA: B5 RNA with G25U, U26G, A27C, C28U, G30A
DNA 1: CAATCTGAATTCCGGTCTCCC
DNA 2: TGGTGGCTACGACGGGATT
B24: AUUCGUU (DNA:RNA)
RNA: B5 RNA with G25A, A27U, A29G, G30U, C31U
DNA 1: CAATCTGAATTCCGGTCTCCC
DNA 2: TGGTGGCTACGACGGGATT
B25: UGGGGUG (DNA:RNA)
RNA: B1 RNA with A25U, C26G, A28G, U29G, A30U
DNA 1: CAATCTGAATTCCGGTCTCCC
DNA 2: TGGTGGCTACGACGGGATT
B26: CCCGGAU (DNA:RNA)
RNA: B1 RNA with A25C, G27C, A28G, U29G, G31U
DNA 1: CAATCTGAATTCCGGTCTCCC
DNA 2: TGGTGGCTACGACGGGATT
B27: CUGCUAU (DNA:RNA)
RNA: B1 RNA with A25C, C26U, A28C, G31U
DNA 1: CAATCTGAATTCCGGTCTCCC
DNA 2: TGGTGGCTACGACGGGATT
B28: GAAAGGG (DNA:RNA)
RNA: B5 RNA with U26A, C28A, A29G, C31G
DNA 1: CAATCTGAATTCCGGTCTCCC
DNA 2: TGGTGGCTACGACGGGATT
B29: AUACGUG (DNA:RNA)
RNA: B5 RNA with G25A, A29G, G30U, C31G
DNA 1: CAATCTGAATTCCGGTCTCCC
DNA 2: TGGTGGCTACGACGGGATT
B30: UGCCAUG (DNA:RNA)
RNA: B5 RNA with G25U, U26G, A27C, G30U, C31G
DNA 1: CAATCTGAATTCCGGTCTCCC
DNA 2: TGGTGGCTACGACGGGATT
B31: GCAUCCU (DNA:RNA)
RNA: B5 RNA with U26C, C28U, A29C, G30C, C31U
DNA 1: CAATCTGAATTCCGGTCTCCC
DNA 2: TGGTGGCTACGACGGGATT

This assay has as its target T1, RBFOX1 RRM RbFoxmut (Fox-RRM*) (Homo sapiens, UniProt Q9NWB1 109-208, R118D;E147R;N151S;E152T).
T1 sequence: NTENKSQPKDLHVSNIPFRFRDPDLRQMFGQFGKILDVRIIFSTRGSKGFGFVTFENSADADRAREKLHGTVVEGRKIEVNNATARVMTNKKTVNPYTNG
Put plainly: EMSA; HiTS-Eq, 1 nM pool, 10 min; buffer printed only for the single-RNA assays: 10 mM Tris pH 7.5, 150 mM NaCl, 3.4 mM EDTA, 0.001% NP-40, 30 C. Particulars: tags: His6 N-terminal (pET28a); label: 5' 32P. Put shortly: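 A pool of RNA with 7 randomized nucleotides, 5′-radiolabelled and with DNA-annealed flanks, was equilibrated at 1 nM for 10 min in 50 µL with purified RbFox RRM, wild type or mutant, across increasing protein concentrations. Free RNA was separated by 8% native PAGE, excised, reverse-transcribed, barcoded by PCR and sequenced. Relative association constants were obtained from read-count changes of each RNA species versus the control reaction and normalised to the cognate motif.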
Background: In EMSA bound probe runs differently from free probe, usually more slowly.
Turning to B1, the binding signal is 0.105 KA relative to UGCAUGU.
Turning to B2, the binding signal was 0.0926 KA relative to UGCAUGU.
As for B3, the binding signal was 0.0756 KA relative to UGCAUGU.
Consider B4, for which the binding signal was 0.0931 KA relative to UGCAUGU.
In the case of B5, the binding signal is 0.0876 KA relative to UGCAUGU.
Turning to B6, the binding signal is 0.148 KA relative to UGCAUGU.
The figure for B7 is 0.132 KA relative to UGCAUGU.
Turning to B8, the binding signal was 0.138 KA relative to UGCAUGU.
In the case of B9, the binding signal was 0.0518 KA relative to UGCAUGU.
In the case of B10, the binding signal is 0.149 KA relative to UGCAUGU.
Then B11, with 0.127 KA relative to UGCAUGU; and B12, with 0.125 KA relative to UGCAUGU.
With B13, the binding signal is 0.104 KA relative to UGCAUGU.
Consider B14, for which the binding signal was 0.0825 KA relative to UGCAUGU.
For B15, the binding signal is 0.0667 KA relative to UGCAUGU.
Take B16: the binding signal is 0.0736 KA relative to UGCAUGU.
The figure for B17 is 0.0698 KA relative to UGCAUGU.
As for B18, the binding signal was 0.0692 KA relative to UGCAUGU.
The figure for B19 is 0.126 KA relative to UGCAUGU; for B20 it is 0.0609 KA relative to UGCAUGU; for B21 it is 0.112 KA relative to UGCAUGU.
The figure for B22 is 0.0882 KA relative to UGCAUGU; for B23 it is 0.0992 KA relative to UGCAUGU.
In the case of B24, the binding signal is 0.134 KA relative to UGCAUGU.
For B25, the binding signal is 0.38 KA relative to UGCAUGU.
As for B26, the binding signal was 0.0433 KA relative to UGCAUGU.
Turning to B27, the binding signal is 0.121 KA relative to UGCAUGU.
Regarding B28, the binding signal is 0.0436 KA relative to UGCAUGU.
The figure for B29 is 0.132 KA relative to UGCAUGU; for B30 it is 0.509 KA relative to UGCAUGU; for B31 it is 0.289 KA relative to UGCAUGU.
